Experimental data from the supplement of paper PMC4967469.
The IC50 comes from the fitted curve, where viability falls to half of the control; where the fit passes the top or lowest dose, that dose stands as a limit. The AUC spans the tested range (256-fold, ending at the top dose) of the same fit; it is 1 without any effect and falls as sensitivity rises. For part of these data: The top dose, if marked as inferred, was derived from the fitted curves, not read from the paper. For part of these data: An entry number marks a drug with two screens in the source, which often give different values.

Columns and labels:
Experiment in all cases: Viability of human cancer cell lines after 72 h of drug (GDSC screen)
Thapsigargin = compound: C/C=C(/C)C(=O)O[C@H]1C(C)=C2[C@H]([C@@H]1OC(=O)CCCCCCC)[C@@](C)(OC(C)=O)C[C@H](OC(=O)CCC)[C@@]1(O)[C@H]2OC(=O)[C@@]1(C)O [Thapsigargin]; details: top dose 0.512 µM; top dose inferred
Experimental: (§1)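 Human cancer cell lines in 384-well plates, medium with 10% serum, drug for 72 h over a 256-fold dose range (nine 2-fold or five 4-fold steps up to the top dose). Adherent lines were fixed and stained with the nucleic acid dye Syto60, suspension lines read with resazurin; signal relative to control wells, capped at 0 and 100%. One two-parameter sigmoid per drug and line, fitted in a mixed model over all curves with the slope shared within a line.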

QL-X-138 = compound: C=CC(=O)Nc1cc(-n2c(=O)ccc3cnc4ccc(-c5cn[nH]c5)cc4c32)ccc1C [QL-X-138]; details: top dose 10.24 µM; top dose inferred
Experimental: as §1

GSK269962A = compound: CCn1c(-c2nonc2N)nc2cnc(Oc3cccc(NC(=O)c4ccc(OCCN5CCOCC5)cc4)c3)cc21 [GSK269962A]; details: top dose inferred
Experimental: as §1

MPS-1-IN-1 = compound: COc1cc(N2CCC(O)CC2)ccc1Nc1cc(Nc2ccccc2S(=O)(=O)C(C)C)c2cc[nH]c2n1 [MPS-1-IN-1]; details: top dose 20 µM; top dose inferred
Experimental: as §1

(5Z)-7-Oxozeaenol = compound: COc1cc(O)c2c(c1)/C=C/C[C@H](O)[C@H](O)C(=O)/C=C\C[C@H](C)OC2=O [(5Z)-7-Oxozeaenol]; details: top dose 10 µM; top dose inferred
Experimental: as §1

CP466722 = compound: COc1cc2ncnc(-n3nc(-c4ccccn4)nc3N)c2cc1OC [CP466722]; details: top dose 16 µM; top dose inferred
Experimental: as §1

Zibotentan = compound: COc1nc(C)cnc1NS(=O)(=O)c1cccnc1-c1ccc(-c2nnco2)cc1 [Zibotentan]; details: top dose 20 µM; top dose inferred
Experimental: as §1

ABT-888 = compound: C[C@]1(c2nc3c(C(N)=O)cccc3[nH]2)CCCN1 [ABT-888]; details: top dose 5 µM; top dose inferred
Experimental: as §1

CMK = compound: Cc1ccc(-c2c(C(=O)CCl)n(CCCO)c3ncnc(N)c23)cc1 [CMK]; details: top dose 4 µM; top dose inferred
Experimental: as §1

ABT-869 = compound: Cc1ccc(F)c(NC(=O)Nc2ccc(-c3cccc4[nH]nc(N)c34)cc2)c1 [ABT-869]; details: top dose 1.024 µM; top dose inferred
Experimental: as §1

CHIR-99021 = compound: Cc1cnc(-c2cnc(NCCNc3ccc(C#N)cn3)nc2-c2ccc(Cl)cc2Cl)[nH]1 [CHIR-99021]
Experimental: as §1

KU-55933 = compound: O=c1cc(-c2cccc3c2Sc2ccccc2S3)oc(N2CCOCC2)c1 [KU-55933]; details: top dose 10 µM
Experimental: as §1

[1] = top dose 2.5 µM, screen: GDSC drug entry 127
[2] = top dose 5 µM, screen: GDSC drug entry 1192
[3] = top dose 2.56 µM, screen: GDSC drug entry 154
[4] = top dose 10 µM, screen: GDSC drug entry 1241, top dose inferred

Cell Line	AUC (Thapsigargin)	IC50 (Thapsigargin) [µM]	AUC (QL-X-138)	IC50 (QL-X-138) [µM]	AUC (GSK269962A; [1])	IC50 (GSK269962A; [1]) [µM]	AUC (GSK269962A; [2])	IC50 (GSK269962A; [2]) [µM]	AUC (MPS-1-IN-1)	IC50 (MPS-1-IN-1) [µM]	AUC ((5Z)-7-Oxozeaenol)	IC50 ((5Z)-7-Oxozeaenol) [µM]	AUC (CP466722)	IC50 (CP466722) [µM]	AUC (Zibotentan)	IC50 (Zibotentan) [µM]	AUC (ABT-888)	IC50 (ABT-888) [µM]	AUC (CMK)	IC50 (CMK) [µM]	AUC (ABT-869)	IC50 (ABT-869) [µM]	AUC (CHIR-99021; [3])	IC50 (CHIR-99021; [3]) [µM]	AUC (CHIR-99021; [4])	IC50 (CHIR-99021; [4]) [µM]	AUC (KU-55933)	IC50 (KU-55933) [µM]
ML-2 (acute myeloid leukaemia, suspension)	0.387	0.0163	0.384	0.319	0.79	0.98	0.55	0.42	0.693	4.06	0.469	0.519	0.674	2.87	0.98	> 20	0.984	> 5	0.921	> 4	0.971	> 1.02	0.99	> 2.56	0.988	> 10	0.984	> 10
NAMALWA (Burkitt lymphoma, suspension)	0.397	0.0176	0.465	0.523	0.984	> 2.5	0.964	> 5	0.857	12.4	0.7	2.05	0.674	2.8	0.991	> 20	0.984	> 5	0.809	1.7	0.99	> 1.02	0.988	> 2.56	0.933	> 10	0.96	> 10
NB14 (neuroblastoma, adherent)	0.248	0.00634	0.892	> 10.2	0.974	> 2.5	0.736	1.4	0.44	0.867	0.52	0.708	0.846	10.7	0.988	> 20	0.988	> 5	0.939	> 4	0.989	> 1.02	0.955	> 2.56	0.894	> 10	0.944	> 10
NCI-H23 (lung adenocarcinoma, adherent)	0.807	0.26	0.913	> 10.2	0.979	> 2.5	0.976	> 5	0.922	> 20	0.556	0.889	0.792	7.17	0.988	> 20	0.979	> 5	0.838	2.66	0.987	> 1.02	0.982	> 2.56	0.967	> 10	0.978	> 10
NCI-H82 (small cell lung carcinoma, suspension)	0.436	0.0216	0.874	9.07	0.948	> 2.5	0.983	> 5	0.907	> 20	0.886	> 10	0.826	9.02	0.989	> 20	0.99	> 5	0.924	> 4	0.989	> 1.02	0.96	> 2.56	0.985	> 10	0.897	> 10
NCI-H526 (small cell lung carcinoma, suspension)	0.53	0.0384	0.792	4.41	0.947	> 2.5	0.976	> 5	0.893	> 20	0.978	> 10	0.987	> 16	0.989	> 20	0.989	> 5	0.98	> 4	0.989	> 1.02	0.948	> 2.56	0.988	> 10	0.97	> 10
NCI-H1155 (large cell lung carcinoma, suspension)	0.873	0.346	0.886	7.84	0.96	> 2.5	0.774	1.62	0.954	> 20	0.84	5.2	0.902	14.2	0.992	> 20	0.992	> 5	0.984	> 4	0.991	> 1.02	0.993	> 2.56	0.989	> 10	0.95	> 10
NEC8 (testis, adherent)	0.317	0.0108	0.876	7.56	0.986	> 2.5	0.983	> 5	0.933	> 20	0.772	3.3	0.871	11.3	0.991	> 20	0.973	> 5	0.95	> 4	0.99	> 1.02	0.984	> 2.56	0.925	> 10	0.944	> 10
NOMO-1 (acute myeloid leukaemia, suspension)	0.966	> 0.512	0.613	1.37	0.913	> 2.5	0.907	> 5	0.751	7.41	0.537	0.801	0.703	4.08	0.98	> 20	0.907	> 5	0.977	> 4	0.857	1.02	0.978	> 2.56	0.957	> 10	0.852	9.39
